From PubChem BioAssay AID1671189 (National Center for Advancing Translational Sciences (NCATS), 2021) come the findings set out here.

Among all 1,100 compounds or so, about 70 (6%) were called active. Another 22% or so got no clear call; they are omitted. Calls follow the shape of the dose curve; as a rule, active = well fitted curve in the direction sought with a large enough effect; inconclusive = small, poorly fitted or top-dose-only effect, or another doubt; inactive = no such curve, though single readings can be large or run the other way. This is one part of the list.
% is scaled to controls: 0 for no effect and ±100 for the full control effect; potency is read from the fitted curve at half-maximal effect.

This assay addresses Polyunsaturated fatty acid lipoxygenase ALOX12 (Homo sapiens) (UniProt P18054). In words: Confirmatory qHTS assay for inhibitors of human arachidonate 12S-lipoxygenase (ALOX12): Round 2. Particulars: purified human 12-LOX, xylenol orange absorbance; series mostly up to 125 µM; activity change, negative = inhibition: at the top concentration. In short, it runs like this: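 Activity was measured as hydroperoxide formation via ferrous/xylenol orange, taking the 573 nm to 405 nm absorbance ratio. Reaction: 40 uM arachidonic acid, 30 min at room temperature, after 15 min compound preincubation with 150 nM enzyme, pH 7.0 Hepes buffer.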
UniProt P18054, sequence (P18054 whole entry, looked up): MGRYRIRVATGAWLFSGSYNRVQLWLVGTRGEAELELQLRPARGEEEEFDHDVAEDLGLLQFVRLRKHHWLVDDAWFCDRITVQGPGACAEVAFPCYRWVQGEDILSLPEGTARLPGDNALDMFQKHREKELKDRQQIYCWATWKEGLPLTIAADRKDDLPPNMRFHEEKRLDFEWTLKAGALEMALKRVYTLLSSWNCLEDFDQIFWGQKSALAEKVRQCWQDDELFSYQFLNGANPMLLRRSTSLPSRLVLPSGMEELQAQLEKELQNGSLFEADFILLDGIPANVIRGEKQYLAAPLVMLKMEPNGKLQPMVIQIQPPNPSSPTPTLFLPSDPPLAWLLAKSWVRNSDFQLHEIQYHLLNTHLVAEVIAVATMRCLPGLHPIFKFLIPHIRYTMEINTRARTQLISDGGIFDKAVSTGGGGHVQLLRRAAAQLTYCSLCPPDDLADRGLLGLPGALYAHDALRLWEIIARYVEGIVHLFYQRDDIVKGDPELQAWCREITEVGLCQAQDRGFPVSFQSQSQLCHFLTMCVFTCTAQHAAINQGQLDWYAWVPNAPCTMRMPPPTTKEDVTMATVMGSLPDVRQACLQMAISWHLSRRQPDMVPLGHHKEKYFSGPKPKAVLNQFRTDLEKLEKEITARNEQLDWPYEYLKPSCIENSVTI
For the compound `CCOC(=O)C1=CN(CC(=O)Nc2ccccc2CC)S(=O)(=O)N=C1C`, the “activity change, negative = inhibition” value was inactive: -15% [at 64.5 µM].

With `CCOc1ccccc1CN1CCCCC12Cc1ccccc1CNC2=O` (stereo unspecified), the “activity change, negative = inhibition” value was inactive: -12.7%.

Consider `CN1CC(=O)N(C2CCCNC2)Cc2c1ncnc2N1CCN(Cc2ccccc2)CC1` (stereo unspecified), for which the “activity change, negative = inhibition” value is inactive: -24.9%.

Regarding `CC(C)[S+](=O)([O-])N1CCCC1c1nnc2n1CCNC2` (stereo unspecified), the “activity change, negative = inhibition” value is inactive: 4.01%.

Consider `CCN1CCC2(Cc3ccccc3CN(C(=O)Cc3ccccc3)C2)C1` (stereo unspecified), for which the “activity change, negative = inhibition” value is inactive: 1.51%.

Turning to `COc1ccc2c(c1)CCCN2C1CNC1`, the “activity change, negative = inhibition” value is inactive: -17.1% [at 233 µM].

For `O=C1NC(=NC2CCCCC2)C2(CCN(Cc3ccc(F)cc3)C2)N1c1cccnc1` (stereo unspecified), the “activity change, negative = inhibition” value is inactive: -11.1%.

For `CCC(C)CNc1ncnc2c1CN(C1CCCNCC1)C(=O)CN2C` (stereo unspecified), the “activity change, negative = inhibition” value is inactive: 1.31%.

In the case of `CN(C)C(=O)N1CCCC(c2nnc3n2CCNC3)C1` (stereo unspecified), the “activity change, negative = inhibition” value is inactive: -8.8%.

As to `CCC1(N2CCN(C(=O)Nc3cc(C)ccc3OC)CC2)CCN(C(=O)C(C)C)C1` (stereo unspecified), the “activity change, negative = inhibition” value was inactive: 5.23% [at 64.5 µM].

Consider `CN(C)c1ccc(CN2CCn3c(nnc3C3CCNCC3)C2)cc1`, for which the “activity change, negative = inhibition” value is inactive: -17.2%.

As for `c1ccc2c(CN3CC(Oc4ccc5c(c4)OCO5)C3)cccc2c1`, the “activity change, negative = inhibition” value is inactive: -24.4%.

As to `COc1cccc(O)c1CN1CCCC12Cc1ccccc1CNC2=O` (stereo unspecified), the “activity change, negative = inhibition” value was inactive: -7.39%.

Consider `Cc1ccccc1N(C)C1CN(Cc2cccc3ccccc23)C1`, for which the “activity change, negative = inhibition” value is inactive: -42.1%.

Regarding `C1CNCC(c2nc(C3CCOCC3)no2)C1` (stereo unspecified), the “activity change, negative = inhibition” value is inactive: -7.31% [at 64.5 µM].

As for `CC(=O)N1Cc2ccccc2CC2(CCCCN2Cc2ccccn2)C1` (stereo unspecified), the “activity change, negative = inhibition” value is inactive: 28.6%.

As for `O=C1c2ccccc2CN1C1CCN(Cc2ccsc2)CC1`, the “activity change, negative = inhibition” value is inactive: -18.5%.

Turning to `O=C1NCc2ccccc2CC12CCCN2Cc1ccsc1` (stereo unspecified), the “activity change, negative = inhibition” value was inactive: -13.5%.

On to `CNCc1ccc(N2CCCC2)cc1`, for which the “activity change, negative = inhibition” value was inactive: 42.4% [at 233 µM].

Take `O=C(c1ccccc1)N1CCn2c(nnc2C2CCNCC2)C1`: the “activity change, negative = inhibition” value was inactive: -13.7%.

In the case of `CC(=O)Nc1ccc(CN2CCC(c3nc4ccc(C)cc4c(=O)[nH]3)CC2)cc1`, the “activity change, negative = inhibition” value is inactive: -13.7%.

Consider `COc1ccc(N2CC3CCC(C2)N3Cc2ccc(C#N)cc2)cc1`, for which the “activity change, negative = inhibition” value was inactive: -22.7%.

As to `CNCc1sc2ccccc2c1C`, the “activity change, negative = inhibition” value is inactive: -22.9% [at 233 µM].

For the compound `CN1CCN(CC(=O)N2c3ccccc3C(=O)Nc3cccnc32)CC1`, the “activity change, negative = inhibition” value was inactive: -5.9%.

In the case of `CN1CC(=O)N(C2CCCNC2)Cc2c(NCCCO)ncnc21` (stereo unspecified), the “activity change, negative = inhibition” value is inactive: -12.2%.

On to `CCCN1CCC2(CC1)Cc1ccccc1CN(C(=O)C(C)C)C2`, for which the “activity change, negative = inhibition” value was inactive: 8.99%.

As for `Cc1cccc(OCc2nc(CC(=O)Nc3ccc(C)c(C)c3)cs2)c1`, the “activity change, negative = inhibition” value is inactive: -8.17%.

Regarding `CC[C@](N)(CCC(=O)O)C(=O)O`, the “activity change, negative = inhibition” value was inactive: -11.6%.

Take `CN1CC(=O)N(C2CCCNCC2)Cc2c1ncnc2N1CCC(N2CCCC2)CC1` (stereo unspecified): the “activity change, negative = inhibition” value was inactive: 4.55%.

As to `COCCNC(=O)c1cc(C)nc2onc(C3CCCNC3)c12` (stereo unspecified), the “activity change, negative = inhibition” value was inactive: -16.4%.

For `Cc1nn(-c2ccccn2)c(C)c1[C@@H]1C=C[C@@H](NC(=O)CSCC(=O)O)C1`, the “activity change, negative = inhibition” value was inactive: 16.2% [at 64.5 µM].

`CCOCCCNc1ncnc2c1CN(C1CCCNC1)C(=O)CN2C` (stereo unspecified): the “activity change, negative = inhibition” value is inactive: -12.6%.

As to `C/C(=C\c1ccccc1)CN1CCCCC12Cc1ccccc1CNC2=O` (stereo unspecified), the “activity change, negative = inhibition” value was inactive: -28.7%.

`CN(C)c1ccc(CN2CC(Oc3ccc(F)c(F)c3)C2)cc1`: the “activity change, negative = inhibition” value is inactive: -26.4%.

As to `Cc1ccc(CN2CCCCC23Cc2ccccc2CNC3=O)cc1C` (stereo unspecified), the “activity change, negative = inhibition” value was inactive: -25.9%.

As to `O=C1NCc2ccccc2CC12CCN(Cc1c(Cl)cncc1Cl)C2` (stereo unspecified), the “activity change, negative = inhibition” value was inactive: -0.846%.

As to `O=C1c2ccccc2CN1C1CCN(Cc2ccc(C(F)(F)F)cc2)CC1`, the “activity change, negative = inhibition” value was inactive: -28.4%.

In the case of `CCCC(=O)N1Cc2ccccc2CC2(CCCN(CC3CCNC3)C2)C1` (stereo unspecified), the “activity change, negative = inhibition” value is inactive: 3.92%.

Regarding `CCNC(=O)[C@@H]1C[C@H](n2cc(CN(C)C(=O)Nc3ccc(C)cc3)nn2)CN1`, the “activity change, negative = inhibition” value is inactive: -6.25% [at 64.5 µM].

Take `CC(=O)N1CCCN(c2ncc(S(C)(=O)=O)c(C3CCCNC3)n2)CC1` (stereo unspecified): the “activity change, negative = inhibition” value is inactive: -27.9% [at 64.5 µM].

As for `CC(=O)N1CCN(c2ccc(Cl)nn2)C(=O)C1`, the “activity change, negative = inhibition” value is inactive: -18.9%.

As to `NC(C(=O)N1CCC2(CC1)CN(C(=O)Cc1cccc(Cl)c1)CCO2)c1ccccc1` (stereo unspecified), the “activity change, negative = inhibition” value is inactive: -4.66%.

As to `CN1CC(=O)N(c2ccc(Cl)cc2)Cc2c(NC3CCNCC3)ncnc21`, the “activity change, negative = inhibition” value was inactive: -20.9%.

As for `C=CCN(C)C(=O)[C@@H](C)C1CC[C@@]2(C)Cc3sc(NC(=O)C4CC4)nc3[C@@H](C)[C@@H]2[C@H]1O` (stereo partly specified), the “activity change, negative = inhibition” value was inactive: 15.5% [at 64.5 µM].

For `O=C(c1cc(C2CC2)nc2onc(C3CCCNC3)c12)N1CCCCC1` (stereo unspecified), the “activity change, negative = inhibition” value was inactive: -15.8%.

`O=C1NCc2ccccc2CC12CCN(Cc1ccnc3ccccc13)CC2`: the “activity change, negative = inhibition” value was inactive: -20.7%.

Take `CN1CC(=O)N(C2CCNCC2)Cc2c1ncnc2N1CCc2ccccc2C1`: the “activity change, negative = inhibition” value was inactive: -19%.

On to `CNc1oc(-c2ccc3cc[nH]c3c2)nc1C#N`, for which the “activity change, negative = inhibition” value was inactive: 6.32% [at 64.5 µM].

As for `CC1Oc2ccc(NC(=O)c3ccc(F)cc3)cc2CN(Cc2ccc3c(c2)OCO3)C1=O` (stereo unspecified), the “activity change, negative = inhibition” value is inactive: -13.2% [at 64.5 µM].

In the case of `CN(C)C(=O)N1CCn2c(nnc2-c2cncc(Br)c2)C1`, the “activity change, negative = inhibition” value is inactive: -24.9%.

Regarding `CN1CC(=O)N(C2CCCNCC2)Cc2c1ncnc2N1CCCC(O)C1` (stereo unspecified), the “activity change, negative = inhibition” value was inactive: -10.7%.

In the case of `CCCC(=O)N1Cc2ccccc2CC2(CCCCN2Cc2ccccn2)C1` (stereo unspecified), the “activity change, negative = inhibition” value is inactive: 53.3%.

On to `Cc1ccc(-c2ncc(C(=O)Nc3ccc(F)cc3C)c(-c3ccncc3)n2)cc1`, for which the “activity change, negative = inhibition” value is inactive: -15.8% [at 64.5 µM].

Take `NCCc1n[nH]c(=O)n1-c1ccc(Cl)cc1`: the “activity change, negative = inhibition” value is inactive: -0.16% [at 64.5 µM].

As for `CN1CC(=O)N(C2CCCC2)Cc2c(NC3CCNCC3)ncnc21`, the “activity change, negative = inhibition” value was inactive: -27%.

As for `O=C(c1ccc(C(F)(F)F)cc1)N1CC(Oc2ccc3c(c2)OCO3)C1`, the “activity change, negative = inhibition” value was inactive: -18.7%.

As to `C[S+](=O)([O-])N1CC2ON=C(C(=O)NCCc3ccc(Cl)cc3)C2C1` (stereo unspecified), the “activity change, negative = inhibition” value is inactive: -10.9%.

For `COc1ccc(-c2cc(-c3cccc(CO)c3)cn3cncc23)cc1`, the Potency was active: 28.2 µM.

Regarding `Cc1ccc(-c2cc(-c3ccc(C)o3)nc(N)c2C#N)cc1`, the Potency is active: 3.06 µM.

For the compound `O=C1NCc2ccccc2CC12CCCN2Cc1cnc2ccccc2c1` (stereo unspecified), the “activity change, negative = inhibition” value was inactive: -20.5%.

On to `O=c1c(CCc2ccccc2)nc2cnc(Oc3ccccc3)nc2n1C1CC1`, for which the “activity change, negative = inhibition” value is inactive: -21.2%.

In the case of `CN(C)c1ccc(CN2CCn3c(nn(-c4ccc(Cl)cc4)c3=O)C2)cc1`, the “activity change, negative = inhibition” value is inactive: -26.9%.

Turning to `CCOC(=O)C1=C(C)N=C2SC=C(CC(=O)NCc3ccco3)N2C1c1cccc([N+](=O)[O-])c1` (stereo unspecified), the “activity change, negative = inhibition” value is inactive: -3.42% [at 64.5 µM].

Consider `c1cc2c(cc1OC1CN(CC3CCCCC3)C1)OCO2`, for which the “activity change, negative = inhibition” value was inactive: -23.2%.

`COc1ccc(-c2cn(C)c(=O)n3cc(COc4ccc(C(=O)O)cc4)nc23)c(C)c1`: the “activity change, negative = inhibition” value was inactive: -13.1% [at 64.5 µM].

For the compound `CN1CCC2(Cc3ccccc3CN(C(=O)CCN)C2)C1` (stereo unspecified), the “activity change, negative = inhibition” value was inactive: -19.4%.

`CN1CC(=O)N(C2CCNCC2)Cc2c(NC3CCCCC3)ncnc21`: the “activity change, negative = inhibition” value is inactive: -13%.

Consider `COc1ccc(CNc2ncnc3c2CN(C2CCNCC2)C(=O)CN3C)cc1OC`, for which the “activity change, negative = inhibition” value was inactive: -22.9%.

As for `CS(=O)(=O)N1CCn2cc(C(=O)Nc3ccc(Cl)cc3Cl)nc2C1`, the “activity change, negative = inhibition” value is inactive: -2.96%.

In the case of `O=C(NCCc1c[nH]c2ccccc12)c1ccccc1C1CCNC1` (stereo unspecified), the “activity change, negative = inhibition” value is inactive: -9.82% [at 64.5 µM].

As to `COCc1nc(NCCCc2c(C)noc2C)cc(C2CC(N)C2)n1` (stereo unspecified), the “activity change, negative = inhibition” value was inactive: -7.49% [at 64.5 µM].

For `CCOC(=O)C1CCN(C(=O)c2cc(Cn3ccnc3C(C)C)[nH]n2)CC1`, the “activity change, negative = inhibition” value is inactive: -9.77% [at 64.5 µM].

Regarding `COc1ccc(-c2cc3nccn3c(Nc3ncccc3C(N)=O)n2)cc1OC`, the “activity change, negative = inhibition” value is inactive: -15%.

Consider `O=C1NCc2ccccc2CC12CCN(Cc1c[nH]c3ccccc13)CC2`, for which the “activity change, negative = inhibition” value is inactive: -25.1%.

Regarding `CNc1oc(-c2cccc(Cl)c2Cl)nc1C#N`, the “activity change, negative = inhibition” value is inactive: -0.907% [at 64.5 µM].

On to `CC(=O)N1CCC2(CC1)CN(C(=O)Cc1csc(N)n1)Cc1ccccc1O2`, for which the “activity change, negative = inhibition” value is inactive: 0.398%.

Regarding `O=C(c1cc(C2CC2)nc2onc(C3CCNCC3)c12)N1CCCCC1`, the “activity change, negative = inhibition” value is inactive: -14%.

In the case of `CN1CC(=O)N(C2CCCNCC2)Cc2c1ncnc2N1CCCC(F)C1` (stereo unspecified), the “activity change, negative = inhibition” value was inactive: -9.99%.

For `CCOc1cccc(CN2CCCC23Cc2ccccc2CNC3=O)c1` (stereo unspecified), the “activity change, negative = inhibition” value was inactive: -19.3%.

In the case of `O=C1NCc2ccccc2CC12CCCN(Cc1ccc(F)cc1O)C2` (stereo unspecified), the “activity change, negative = inhibition” value was inactive: -4.98%.

As for `O=C(NC1CC1)c1cc(C2CC2)nc2onc(C3CCNC3)c12` (stereo unspecified), the “activity change, negative = inhibition” value was inactive: -17.6%.
